No constants are given. Whether binding was seen depends on the method and setting. In cells and extracts the contact can be indirect. Some entries that bind do so weakly or less than the wild type.
Key:
[1] = biological target: LANA1, a KSHV latent protein (Kaposi's sarcoma associated herpesvirus (KSHV)) (UniProt Q9QR71); test: co-IP; IP with anti-IFI16 mAb or anti-LANA antibody from benzonase-treated nuclear fractions of BCBL-1, BC-3 and BJAB cells; Protein A/G sepharose, overnight 4°C; wash 150 mM NaCl, 1% Triton X-100; western blot
[2] = biological target: IFI16 (Interferon-γ-inducible protein 16) (human (endogenous in BCBL-1, BC-3, BJAB, TIME)) (UniProt Q16666); test: proximity ligation; Duolink PLA in fixed TIME cells, uninfected or 24 hr after infection with EdU-labeled KSHV; anti-IFI16 with antibody to the H3K9 MTase; isotype IgG as control
[3] = biological target: untagged IFI16 expressed ectopically in 293T cells (human) (UniProt Q16666); test: co-IP; 293T cells transfected with control, IFI16 or LANA plasmid for 72 hr; IP with anti-IFI16 mAb or LANA mAb; western blot
[4] = biological target: IFI16 (Interferon-γ-inducible protein 16) (human (endogenous in BCBL-1, BC-3, BJAB, TIME)) (UniProt Q16666); test: co-IP; IP with anti-IFI16 mAb or anti-LANA antibody from benzonase-treated nuclear fractions of BCBL-1, BC-3 and BJAB cells; Protein A/G sepharose, overnight 4°C; wash 150 mM NaCl, 1% Triton X-100; western blot
[5] = biological target: IFI16 (Interferon-γ-inducible protein 16) (human (endogenous in BCBL-1, BC-3, BJAB, TIME)) (UniProt Q16666); test: co-IP; IP with anti-IFI16 antibodies from benzonase-treated nuclear fractions of TIME cells, mock infected or infected with KSHV for 6 or 24 hr; western blot
[6] = biological target: G9a-like protein (GLP) (human (endogenous in BCBL-1, BC-3, BJAB, TIME, 293T)) (UniProt Q9H9B1); test: co-IP; reverse co-IP: IP with antibodies against the H3K9 MTases (and EZH2) from nuclear fractions of BCBL-1, BC-3 and BJAB cells; blotted for the MTase, IFI16, LANA and HP1α
[7] = biological target: T1, Suppressor of variegation 3–9 homolog 1 (SUV39H1) (human (endogenous in BCBL-1, BC-3, BJAB, TIME, 293T)) (UniProt O43463); test: as above
T1 sequence: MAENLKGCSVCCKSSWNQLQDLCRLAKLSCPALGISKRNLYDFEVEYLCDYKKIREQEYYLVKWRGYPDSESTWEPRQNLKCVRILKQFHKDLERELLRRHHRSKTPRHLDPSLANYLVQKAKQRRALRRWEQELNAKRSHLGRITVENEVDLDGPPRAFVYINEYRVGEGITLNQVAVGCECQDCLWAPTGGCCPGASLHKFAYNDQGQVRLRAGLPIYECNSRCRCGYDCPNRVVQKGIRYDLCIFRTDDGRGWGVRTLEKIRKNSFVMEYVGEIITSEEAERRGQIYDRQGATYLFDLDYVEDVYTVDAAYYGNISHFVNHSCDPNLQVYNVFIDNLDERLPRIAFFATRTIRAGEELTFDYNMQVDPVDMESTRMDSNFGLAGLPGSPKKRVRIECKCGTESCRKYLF

Protein sequences, listed by entry. Tags and fused reporters are not part of them. Lines headed by an entry give the natural chain unless they say otherwise; changes in a name come on top.
UniProt Q9QR71: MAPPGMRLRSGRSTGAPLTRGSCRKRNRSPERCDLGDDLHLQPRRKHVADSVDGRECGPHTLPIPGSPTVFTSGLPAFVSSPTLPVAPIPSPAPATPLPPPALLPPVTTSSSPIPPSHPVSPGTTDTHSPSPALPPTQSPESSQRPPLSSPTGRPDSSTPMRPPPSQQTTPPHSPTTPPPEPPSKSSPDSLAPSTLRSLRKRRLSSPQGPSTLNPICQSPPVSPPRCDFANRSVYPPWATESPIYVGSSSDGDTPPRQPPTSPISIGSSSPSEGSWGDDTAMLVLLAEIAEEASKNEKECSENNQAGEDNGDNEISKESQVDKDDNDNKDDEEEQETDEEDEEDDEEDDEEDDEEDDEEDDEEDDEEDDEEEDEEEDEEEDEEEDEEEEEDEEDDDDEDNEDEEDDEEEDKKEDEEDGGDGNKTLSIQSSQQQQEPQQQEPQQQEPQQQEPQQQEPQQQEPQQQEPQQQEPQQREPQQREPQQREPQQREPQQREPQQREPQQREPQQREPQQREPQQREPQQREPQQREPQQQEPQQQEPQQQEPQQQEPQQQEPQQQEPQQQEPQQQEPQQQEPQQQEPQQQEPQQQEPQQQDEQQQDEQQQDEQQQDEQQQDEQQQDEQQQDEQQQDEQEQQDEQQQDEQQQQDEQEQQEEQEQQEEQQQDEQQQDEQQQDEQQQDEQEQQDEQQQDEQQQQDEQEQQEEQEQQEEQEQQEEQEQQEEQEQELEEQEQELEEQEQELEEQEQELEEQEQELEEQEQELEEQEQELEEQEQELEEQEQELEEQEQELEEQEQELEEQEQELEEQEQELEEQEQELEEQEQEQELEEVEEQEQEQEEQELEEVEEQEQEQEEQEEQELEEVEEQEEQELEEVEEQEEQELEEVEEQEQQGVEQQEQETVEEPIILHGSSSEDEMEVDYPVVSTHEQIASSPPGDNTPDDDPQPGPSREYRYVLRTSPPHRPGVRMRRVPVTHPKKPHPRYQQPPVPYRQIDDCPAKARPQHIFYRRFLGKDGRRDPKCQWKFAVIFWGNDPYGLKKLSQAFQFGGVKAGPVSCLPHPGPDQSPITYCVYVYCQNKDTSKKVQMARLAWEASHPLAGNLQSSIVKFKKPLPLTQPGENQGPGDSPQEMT
UniProt Q16666: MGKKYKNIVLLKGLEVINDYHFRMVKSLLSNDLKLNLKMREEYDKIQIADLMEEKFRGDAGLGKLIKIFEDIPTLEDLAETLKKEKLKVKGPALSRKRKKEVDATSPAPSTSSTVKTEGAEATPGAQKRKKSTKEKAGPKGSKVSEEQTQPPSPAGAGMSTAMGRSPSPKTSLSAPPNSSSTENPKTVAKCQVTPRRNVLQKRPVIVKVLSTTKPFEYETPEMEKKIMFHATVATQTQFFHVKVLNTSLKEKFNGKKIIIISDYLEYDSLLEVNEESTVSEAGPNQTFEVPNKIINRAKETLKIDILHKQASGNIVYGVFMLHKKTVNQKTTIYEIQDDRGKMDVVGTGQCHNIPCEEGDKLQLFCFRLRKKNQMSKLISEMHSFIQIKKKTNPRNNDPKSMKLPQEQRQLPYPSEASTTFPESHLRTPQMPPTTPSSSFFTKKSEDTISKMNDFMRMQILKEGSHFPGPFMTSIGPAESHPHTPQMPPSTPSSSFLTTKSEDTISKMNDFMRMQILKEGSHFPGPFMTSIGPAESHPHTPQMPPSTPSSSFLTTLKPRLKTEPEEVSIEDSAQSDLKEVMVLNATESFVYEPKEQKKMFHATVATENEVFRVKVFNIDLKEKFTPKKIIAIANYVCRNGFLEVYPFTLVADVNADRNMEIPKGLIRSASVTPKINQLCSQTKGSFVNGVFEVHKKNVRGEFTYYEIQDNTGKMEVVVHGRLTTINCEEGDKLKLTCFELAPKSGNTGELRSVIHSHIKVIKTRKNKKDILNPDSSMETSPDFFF
UniProt Q9H9B1: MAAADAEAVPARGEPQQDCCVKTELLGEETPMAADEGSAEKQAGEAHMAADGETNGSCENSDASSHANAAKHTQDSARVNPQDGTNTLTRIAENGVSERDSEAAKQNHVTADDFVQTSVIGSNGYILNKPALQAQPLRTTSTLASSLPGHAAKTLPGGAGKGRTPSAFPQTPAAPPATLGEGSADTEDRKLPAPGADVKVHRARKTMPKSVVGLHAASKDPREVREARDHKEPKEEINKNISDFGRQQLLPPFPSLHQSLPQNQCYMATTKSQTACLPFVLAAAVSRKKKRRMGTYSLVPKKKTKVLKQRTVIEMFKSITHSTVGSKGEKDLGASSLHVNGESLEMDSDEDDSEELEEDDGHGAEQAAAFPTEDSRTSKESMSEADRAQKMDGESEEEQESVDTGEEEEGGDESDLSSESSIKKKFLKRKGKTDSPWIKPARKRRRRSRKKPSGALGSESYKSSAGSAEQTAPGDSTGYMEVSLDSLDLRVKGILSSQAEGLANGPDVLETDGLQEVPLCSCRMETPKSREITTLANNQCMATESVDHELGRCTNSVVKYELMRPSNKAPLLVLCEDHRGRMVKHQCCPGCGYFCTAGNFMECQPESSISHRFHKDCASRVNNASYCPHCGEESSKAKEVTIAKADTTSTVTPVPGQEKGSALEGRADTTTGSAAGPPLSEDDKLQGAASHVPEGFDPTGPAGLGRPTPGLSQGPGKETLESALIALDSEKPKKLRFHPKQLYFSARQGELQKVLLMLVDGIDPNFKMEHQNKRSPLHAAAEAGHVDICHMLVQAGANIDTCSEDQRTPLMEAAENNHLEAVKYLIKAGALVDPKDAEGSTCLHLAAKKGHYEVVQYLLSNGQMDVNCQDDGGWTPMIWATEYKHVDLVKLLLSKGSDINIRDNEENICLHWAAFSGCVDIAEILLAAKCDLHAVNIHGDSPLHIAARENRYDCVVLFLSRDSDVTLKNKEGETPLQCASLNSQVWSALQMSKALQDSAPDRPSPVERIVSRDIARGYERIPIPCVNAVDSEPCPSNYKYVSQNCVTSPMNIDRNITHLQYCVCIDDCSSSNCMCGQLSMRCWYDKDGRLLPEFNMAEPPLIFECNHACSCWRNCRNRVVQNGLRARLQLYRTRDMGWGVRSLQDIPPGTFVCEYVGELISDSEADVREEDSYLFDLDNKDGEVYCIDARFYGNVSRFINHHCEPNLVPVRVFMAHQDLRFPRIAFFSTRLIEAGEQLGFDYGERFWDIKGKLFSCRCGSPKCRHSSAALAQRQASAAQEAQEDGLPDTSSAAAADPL
UniProt Q15910: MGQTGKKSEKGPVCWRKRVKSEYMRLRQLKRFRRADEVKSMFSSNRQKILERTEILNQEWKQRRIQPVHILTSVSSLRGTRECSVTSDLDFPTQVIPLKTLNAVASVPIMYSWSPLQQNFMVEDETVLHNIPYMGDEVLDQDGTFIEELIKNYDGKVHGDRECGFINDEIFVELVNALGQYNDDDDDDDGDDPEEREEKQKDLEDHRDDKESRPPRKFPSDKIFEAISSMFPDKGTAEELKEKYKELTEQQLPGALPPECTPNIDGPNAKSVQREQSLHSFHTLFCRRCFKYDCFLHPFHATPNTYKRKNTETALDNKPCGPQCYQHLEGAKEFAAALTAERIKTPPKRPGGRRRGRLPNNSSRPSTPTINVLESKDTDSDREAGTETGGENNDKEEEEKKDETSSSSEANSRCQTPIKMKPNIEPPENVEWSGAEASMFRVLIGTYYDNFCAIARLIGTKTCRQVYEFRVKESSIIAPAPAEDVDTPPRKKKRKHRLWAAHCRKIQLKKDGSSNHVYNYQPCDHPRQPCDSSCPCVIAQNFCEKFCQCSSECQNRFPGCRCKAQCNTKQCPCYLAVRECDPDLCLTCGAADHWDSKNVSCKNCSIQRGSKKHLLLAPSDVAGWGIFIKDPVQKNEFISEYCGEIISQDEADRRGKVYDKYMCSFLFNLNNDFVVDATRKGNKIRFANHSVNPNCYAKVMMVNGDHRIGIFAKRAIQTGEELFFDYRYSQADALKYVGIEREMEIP
UniProt Q13029: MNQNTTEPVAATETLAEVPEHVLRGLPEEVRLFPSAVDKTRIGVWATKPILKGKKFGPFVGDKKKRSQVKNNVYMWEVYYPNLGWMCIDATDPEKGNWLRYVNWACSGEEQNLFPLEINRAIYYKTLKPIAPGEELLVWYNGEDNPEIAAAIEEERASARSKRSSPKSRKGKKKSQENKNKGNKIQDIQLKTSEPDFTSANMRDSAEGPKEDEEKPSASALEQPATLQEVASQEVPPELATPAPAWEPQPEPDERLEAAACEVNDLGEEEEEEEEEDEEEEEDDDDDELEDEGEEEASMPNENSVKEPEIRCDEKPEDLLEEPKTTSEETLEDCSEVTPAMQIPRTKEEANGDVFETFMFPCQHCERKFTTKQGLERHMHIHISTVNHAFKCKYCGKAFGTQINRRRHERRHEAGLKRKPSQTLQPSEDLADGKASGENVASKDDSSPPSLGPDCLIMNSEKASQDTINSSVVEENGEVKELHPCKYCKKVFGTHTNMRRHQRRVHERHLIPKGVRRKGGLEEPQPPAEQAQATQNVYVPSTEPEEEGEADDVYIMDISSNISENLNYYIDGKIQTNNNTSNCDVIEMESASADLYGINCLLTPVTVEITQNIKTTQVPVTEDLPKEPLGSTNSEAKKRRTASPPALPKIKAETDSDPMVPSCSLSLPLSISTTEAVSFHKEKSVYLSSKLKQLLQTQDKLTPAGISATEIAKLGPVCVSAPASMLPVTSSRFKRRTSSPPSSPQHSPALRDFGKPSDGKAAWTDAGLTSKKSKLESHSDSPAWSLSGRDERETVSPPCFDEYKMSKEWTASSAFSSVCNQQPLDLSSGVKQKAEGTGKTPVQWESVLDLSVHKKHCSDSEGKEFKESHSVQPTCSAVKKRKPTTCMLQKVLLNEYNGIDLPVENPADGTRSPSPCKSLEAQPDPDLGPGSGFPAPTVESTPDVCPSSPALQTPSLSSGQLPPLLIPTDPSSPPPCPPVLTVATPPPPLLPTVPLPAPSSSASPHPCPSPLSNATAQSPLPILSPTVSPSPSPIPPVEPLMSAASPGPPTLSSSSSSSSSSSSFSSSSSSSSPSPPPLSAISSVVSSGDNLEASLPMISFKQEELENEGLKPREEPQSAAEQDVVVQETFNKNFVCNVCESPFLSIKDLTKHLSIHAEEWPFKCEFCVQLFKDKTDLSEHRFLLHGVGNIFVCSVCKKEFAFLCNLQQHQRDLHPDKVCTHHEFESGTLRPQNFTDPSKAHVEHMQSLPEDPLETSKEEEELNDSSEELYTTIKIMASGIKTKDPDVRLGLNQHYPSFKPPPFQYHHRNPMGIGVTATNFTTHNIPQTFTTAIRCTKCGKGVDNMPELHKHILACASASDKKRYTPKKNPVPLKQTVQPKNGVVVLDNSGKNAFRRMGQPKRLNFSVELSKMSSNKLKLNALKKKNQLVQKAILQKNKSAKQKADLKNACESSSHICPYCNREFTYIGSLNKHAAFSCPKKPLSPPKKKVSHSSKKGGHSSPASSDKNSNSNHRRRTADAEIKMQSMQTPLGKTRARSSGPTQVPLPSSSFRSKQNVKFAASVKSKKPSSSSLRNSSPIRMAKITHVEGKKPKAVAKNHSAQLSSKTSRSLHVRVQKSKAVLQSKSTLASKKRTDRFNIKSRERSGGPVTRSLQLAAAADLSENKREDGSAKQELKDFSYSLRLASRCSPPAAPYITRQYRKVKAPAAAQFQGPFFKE
UniProt Q9H5I1: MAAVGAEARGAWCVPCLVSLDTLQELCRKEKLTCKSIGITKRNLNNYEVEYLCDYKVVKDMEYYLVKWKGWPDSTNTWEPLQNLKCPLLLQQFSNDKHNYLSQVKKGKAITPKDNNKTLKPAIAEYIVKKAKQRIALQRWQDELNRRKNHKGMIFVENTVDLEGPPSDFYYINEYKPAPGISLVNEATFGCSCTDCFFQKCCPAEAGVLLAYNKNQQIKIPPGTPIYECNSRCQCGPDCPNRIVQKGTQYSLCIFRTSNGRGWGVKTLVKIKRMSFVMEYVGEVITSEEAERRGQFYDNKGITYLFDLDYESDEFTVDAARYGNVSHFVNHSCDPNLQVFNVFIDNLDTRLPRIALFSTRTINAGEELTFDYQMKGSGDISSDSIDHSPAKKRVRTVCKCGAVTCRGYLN
UniProt Q9ULZ3: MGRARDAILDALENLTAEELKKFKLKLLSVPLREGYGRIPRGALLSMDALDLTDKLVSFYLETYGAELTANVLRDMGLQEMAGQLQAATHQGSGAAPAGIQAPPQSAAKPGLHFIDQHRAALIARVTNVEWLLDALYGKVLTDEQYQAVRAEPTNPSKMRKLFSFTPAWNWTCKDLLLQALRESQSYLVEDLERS
UniProt P45973: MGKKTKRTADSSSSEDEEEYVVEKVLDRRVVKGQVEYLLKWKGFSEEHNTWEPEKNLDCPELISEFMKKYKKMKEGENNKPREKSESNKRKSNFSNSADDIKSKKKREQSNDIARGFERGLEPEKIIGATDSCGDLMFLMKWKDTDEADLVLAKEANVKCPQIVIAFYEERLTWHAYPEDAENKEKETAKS

[8] = biological target: EZH2 (H3K27 methylating PRC2 complex protein) (human (endogenous in BCBL-1, BC-3, BJAB, 293T)) (UniProt Q15910); test: as above
[9] = biological target: G9a-like protein (GLP) (human (endogenous in BCBL-1, BC-3, BJAB, TIME, 293T)) (UniProt Q9H9B1); test: co-IP; reverse co-IP: IP with antibodies against the MTases from TIME cells, uninfected or infected with KSHV for 6 or 24 hr; blotted for the MTase and IFI16
[10] = biological target: T1, Suppressor of variegation 3–9 homolog 1 (SUV39H1) (human (endogenous in BCBL-1, BC-3, BJAB, TIME, 293T)); test: as above
[11] = biological target: RIZ1 (human (endogenous in BCBL-1, BC-3, BJAB, TIME, 293T)) (UniProt Q13029); test: co-IP; reverse co-IP: IP with antibodies against the H3K9 MTases (and EZH2) from nuclear fractions of BCBL-1, BC-3 and BJAB cells; blotted for the MTase, IFI16, LANA and HP1α
[12] = biological target: G9A (human (endogenous in BCBL-1, BC-3, BJAB, TIME, 293T)) (UniProt Q96KQ7); test: as above
[13] = biological target: T2, SETDB2 (human (endogenous in BCBL-1, BC-3, BJAB, TIME, 293T)) (UniProt Q96T68); test: as above
T2 sequence: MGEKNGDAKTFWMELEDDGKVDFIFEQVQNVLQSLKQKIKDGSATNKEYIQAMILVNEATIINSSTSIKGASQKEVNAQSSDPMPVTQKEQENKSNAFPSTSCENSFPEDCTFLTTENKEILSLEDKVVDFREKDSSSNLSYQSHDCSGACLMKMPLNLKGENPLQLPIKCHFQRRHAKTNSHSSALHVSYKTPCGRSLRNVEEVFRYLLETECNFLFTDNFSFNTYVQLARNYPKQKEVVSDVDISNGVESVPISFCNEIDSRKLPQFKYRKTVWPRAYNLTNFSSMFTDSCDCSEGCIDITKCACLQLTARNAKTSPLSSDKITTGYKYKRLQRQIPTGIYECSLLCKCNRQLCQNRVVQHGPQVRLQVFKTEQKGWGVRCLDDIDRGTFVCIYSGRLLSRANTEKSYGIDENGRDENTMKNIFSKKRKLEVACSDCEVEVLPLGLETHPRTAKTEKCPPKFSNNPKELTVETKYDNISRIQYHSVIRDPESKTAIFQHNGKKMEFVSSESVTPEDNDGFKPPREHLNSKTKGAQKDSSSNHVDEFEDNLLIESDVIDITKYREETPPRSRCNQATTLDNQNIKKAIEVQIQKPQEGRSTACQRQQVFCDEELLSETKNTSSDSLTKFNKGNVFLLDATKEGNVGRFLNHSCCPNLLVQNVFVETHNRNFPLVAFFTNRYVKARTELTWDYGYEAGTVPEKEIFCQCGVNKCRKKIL

[14] = biological target: SUV39H2 (human (endogenous in BCBL-1, BC-3, BJAB, TIME, 293T)) (UniProt Q9H5I1); test: as above
[15] = biological target: LANA-1 expressed ectopically in 293T cells (pCI-neo full-length LANA-1) (Kaposi's sarcoma associated herpesvirus (KSHV)) (UniProt Q9QR71); test: co-IP; 293T cells transfected with control, IFI16 or LANA plasmid for 72 hr; IP with anti-IFI16 mAb or LANA mAb; western blot

ASC (from UniProt Q9ULZ3 1-195)
binding [1]: no binding

G9A (from UniProt Q96KQ7 1-1210) (enzyme)
binding [1]: no binding

G9a-like protein (GLP) (from UniProt Q9H9B1 1-1298) (enzyme)
binding [2]: binds
binding [3]: binds
binding [4]: binds
binding [1]: no binding
binding [5]: binds

IFI16 (Interferon-γ-inducible protein 16) (from UniProt Q16666 1-785)
binding [6]: binds
binding [7]: binds
binding [8]: no binding
binding [9]: binds
binding [10]: binds

LANA1, a KSHV latent protein (from UniProt Q9QR71 1-1129)
binding [6]: no binding
binding [11]: no binding
binding [12]: no binding
binding [13]: binds
binding [14]: no binding
binding [7]: no binding
binding [8]: binds

RIZ1 (from UniProt Q13029-1 1-1718) (enzyme)
binding [1]: no binding

SETDB2 (from UniProt Q96T68 1-719) (enzyme)
binding [1]: binds

SUV39H2 (from UniProt Q9H5I1 1-410) (enzyme)
binding [1]: no binding

heterochromatin protein 1-α (HP1α) (from UniProt P45973 1-191)
binding [11]: no binding
binding [13]: binds
binding [14]: binds
binding [7]: binds
binding [8]: binds
binding [1]: no binding

B1: Suppressor of variegation 3–9 homolog 1 (SUV39H1) (enzyme, UniProt O43463 1-412)
chain: T1 sequence
binding [2]: binds
binding [15]: no binding
binding [3]: binds
binding [4]: binds
binding [1]: no binding
binding [5]: binds
